Results are given in words; binding and its absence hold for the method and conditions named. In cells and extracts the contact can be indirect. Some binding calls cover weakened binding; strength is not graded here. Each block holds one substance with its values, some of them ahead of it.
Tests used:
RUNX1-R320X = RUNX1-R320X (UniProt Q01196); assay: condition: also with a three-fold excess of the RUNX1-R320X plasmid; co-IP; HEK293T cells transfected with expression constructs; lysates incubated with primary antibodies and Protein A/G Dynabeads or with anti-FLAG M2 magnetic beads; western blot
FLAG-RUNX1-Y287X = FLAG-RUNX1-Y287X (UniProt Q01196); assay: co-IP; HEK293T cells transfected with expression constructs; lysates incubated with primary antibodies and Protein A/G Dynabeads or with anti-FLAG M2 magnetic beads; western blot
[1] = target: full length, wild type (WT) FLAG tagged RUNX1 (UniProt Q01196); assay: as above
FLAG-RUNX1-Y407X = FLAG-RUNX1-Y407X (UniProt Q01196); assay: as above
FLAG-RUNX1-R232X = FLAG-RUNX1-R232X (UniProt Q01196); assay: as above
FLAG-RUNX1-G365R = FLAG-RUNX1-G365R (UniProt Q01196); assay: as above
[2] = target: Runt-related transcription factor 1 (RUNX1), endogenous in human cells (human (endogenous in ME-1, MOLM-13, REH and other leukemia cell lines)) (UniProt Q01196); assay: co-IP; endogenous proteins; lysates of mouse CM+ cells, ME-1 and a panel of human AML and ALL cell lines immunoprecipitated with anti-RUNX1 or anti-IgG antibodies and blotted for PTBP1
[3] = target: Runt-related transcription factor 1 (RUNX1), endogenous in human cells (human (endogenous in ME-1, MOLM-13, REH and other leukemia cell lines)) (UniProt Q01196); assay: proximity ligation; Duolink PLA with RUNX1 and PTBP1 antibodies, confocal imaging; MOLM-13 and REH cells (vehicle or entinostat for 48 h), mouse lin- bone marrow and CM+ cells, human CD34+ and primary AML cells
Myc tag WT PTBP1 = Myc tag WT PTBP1 (UniProt P26599); assay: co-IP; HEK293T cells transfected with expression constructs; lysates incubated with primary antibodies and Protein A/G Dynabeads or with anti-FLAG M2 magnetic beads; western blot
Myc-PTBP1-RRM1 = Myc-PTBP1-RRM1 (UniProt P26599); assay: as above

Chains of the proteins cited; added tags and fusions are not shown. Lines headed by an entry give the natural chain unless they say otherwise; changes in a name come on top. A line that says so, or that is headed by a name, gives the form on record, which may keep a tag or linker. Residues count along the entry.
UniProt Q01196: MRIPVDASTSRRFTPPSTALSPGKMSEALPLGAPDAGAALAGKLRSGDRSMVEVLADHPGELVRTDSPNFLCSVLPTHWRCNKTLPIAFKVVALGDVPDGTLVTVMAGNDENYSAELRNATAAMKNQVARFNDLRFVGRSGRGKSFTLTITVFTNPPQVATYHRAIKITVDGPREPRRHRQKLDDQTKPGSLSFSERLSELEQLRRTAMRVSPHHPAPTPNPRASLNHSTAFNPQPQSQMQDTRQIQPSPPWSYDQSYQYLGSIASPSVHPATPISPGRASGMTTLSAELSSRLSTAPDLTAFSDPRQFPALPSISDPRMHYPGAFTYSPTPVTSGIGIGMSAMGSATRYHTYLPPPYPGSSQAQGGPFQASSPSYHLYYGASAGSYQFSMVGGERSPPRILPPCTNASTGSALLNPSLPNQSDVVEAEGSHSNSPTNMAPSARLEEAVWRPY
RUNX1-R320X (Q01196-8, form named): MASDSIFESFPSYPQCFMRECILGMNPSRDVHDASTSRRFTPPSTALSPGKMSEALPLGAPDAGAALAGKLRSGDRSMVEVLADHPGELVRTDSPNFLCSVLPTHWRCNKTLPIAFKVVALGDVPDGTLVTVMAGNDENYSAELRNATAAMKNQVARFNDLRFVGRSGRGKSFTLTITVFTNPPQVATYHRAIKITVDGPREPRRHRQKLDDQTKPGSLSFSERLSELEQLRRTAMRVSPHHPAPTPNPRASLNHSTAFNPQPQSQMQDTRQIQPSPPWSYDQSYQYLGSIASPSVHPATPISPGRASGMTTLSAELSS
FLAG-RUNX1-Y287X (Q01196-8, form named): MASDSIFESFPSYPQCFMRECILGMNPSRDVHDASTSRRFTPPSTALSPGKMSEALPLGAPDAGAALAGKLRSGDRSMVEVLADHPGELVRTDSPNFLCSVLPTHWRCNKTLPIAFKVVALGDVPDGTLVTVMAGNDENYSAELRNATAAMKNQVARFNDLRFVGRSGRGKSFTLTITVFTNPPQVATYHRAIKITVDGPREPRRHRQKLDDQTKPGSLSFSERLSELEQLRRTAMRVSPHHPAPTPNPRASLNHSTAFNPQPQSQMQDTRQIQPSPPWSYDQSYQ
full length, wild type (WT) FLAG tagged RUNX1 (Q01196-8, form named): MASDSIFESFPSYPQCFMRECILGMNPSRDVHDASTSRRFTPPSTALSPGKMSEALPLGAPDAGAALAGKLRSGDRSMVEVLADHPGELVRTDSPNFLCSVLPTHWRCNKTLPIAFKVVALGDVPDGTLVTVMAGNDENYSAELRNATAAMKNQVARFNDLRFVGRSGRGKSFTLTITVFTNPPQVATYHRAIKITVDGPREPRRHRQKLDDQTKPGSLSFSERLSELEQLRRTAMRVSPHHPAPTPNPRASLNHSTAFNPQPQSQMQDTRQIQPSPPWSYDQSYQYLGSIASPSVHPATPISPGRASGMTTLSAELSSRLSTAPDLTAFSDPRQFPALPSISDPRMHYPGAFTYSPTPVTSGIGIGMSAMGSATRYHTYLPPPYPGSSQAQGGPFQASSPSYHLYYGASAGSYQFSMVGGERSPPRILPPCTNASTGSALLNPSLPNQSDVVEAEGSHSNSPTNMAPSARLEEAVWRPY
FLAG-RUNX1-Y407X (Q01196-8, form named): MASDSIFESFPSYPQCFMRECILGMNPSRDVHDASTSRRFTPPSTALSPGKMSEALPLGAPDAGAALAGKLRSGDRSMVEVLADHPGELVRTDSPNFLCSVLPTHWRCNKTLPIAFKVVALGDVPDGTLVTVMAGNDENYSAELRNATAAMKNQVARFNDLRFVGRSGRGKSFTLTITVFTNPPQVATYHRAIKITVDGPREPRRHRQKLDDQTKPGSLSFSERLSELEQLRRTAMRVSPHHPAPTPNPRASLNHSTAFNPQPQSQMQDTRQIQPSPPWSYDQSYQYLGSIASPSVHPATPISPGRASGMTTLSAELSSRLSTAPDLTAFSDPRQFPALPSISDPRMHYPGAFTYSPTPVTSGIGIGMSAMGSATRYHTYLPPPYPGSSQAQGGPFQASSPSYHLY
FLAG-RUNX1-R232X (Q01196-8, form named): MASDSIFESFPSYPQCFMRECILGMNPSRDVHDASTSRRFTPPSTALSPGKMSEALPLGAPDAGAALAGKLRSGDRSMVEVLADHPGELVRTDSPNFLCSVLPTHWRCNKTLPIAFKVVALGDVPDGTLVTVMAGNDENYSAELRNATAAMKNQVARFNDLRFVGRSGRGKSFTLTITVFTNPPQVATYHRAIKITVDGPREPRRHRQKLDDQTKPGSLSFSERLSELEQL
FLAG-RUNX1-G365R (Q01196-8, form named): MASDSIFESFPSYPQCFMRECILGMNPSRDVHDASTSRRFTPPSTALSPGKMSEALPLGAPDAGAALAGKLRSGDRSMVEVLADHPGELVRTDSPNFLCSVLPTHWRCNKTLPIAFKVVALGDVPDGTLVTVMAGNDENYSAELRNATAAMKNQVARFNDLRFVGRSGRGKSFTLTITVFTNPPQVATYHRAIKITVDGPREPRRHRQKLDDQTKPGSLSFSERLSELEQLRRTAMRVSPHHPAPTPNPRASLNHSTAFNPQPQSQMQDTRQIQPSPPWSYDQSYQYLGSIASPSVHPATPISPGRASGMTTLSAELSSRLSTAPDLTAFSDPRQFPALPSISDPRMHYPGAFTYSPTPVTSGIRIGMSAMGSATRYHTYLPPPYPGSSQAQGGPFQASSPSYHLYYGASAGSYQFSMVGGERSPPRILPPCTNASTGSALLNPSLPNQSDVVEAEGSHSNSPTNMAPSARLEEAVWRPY
UniProt P26599: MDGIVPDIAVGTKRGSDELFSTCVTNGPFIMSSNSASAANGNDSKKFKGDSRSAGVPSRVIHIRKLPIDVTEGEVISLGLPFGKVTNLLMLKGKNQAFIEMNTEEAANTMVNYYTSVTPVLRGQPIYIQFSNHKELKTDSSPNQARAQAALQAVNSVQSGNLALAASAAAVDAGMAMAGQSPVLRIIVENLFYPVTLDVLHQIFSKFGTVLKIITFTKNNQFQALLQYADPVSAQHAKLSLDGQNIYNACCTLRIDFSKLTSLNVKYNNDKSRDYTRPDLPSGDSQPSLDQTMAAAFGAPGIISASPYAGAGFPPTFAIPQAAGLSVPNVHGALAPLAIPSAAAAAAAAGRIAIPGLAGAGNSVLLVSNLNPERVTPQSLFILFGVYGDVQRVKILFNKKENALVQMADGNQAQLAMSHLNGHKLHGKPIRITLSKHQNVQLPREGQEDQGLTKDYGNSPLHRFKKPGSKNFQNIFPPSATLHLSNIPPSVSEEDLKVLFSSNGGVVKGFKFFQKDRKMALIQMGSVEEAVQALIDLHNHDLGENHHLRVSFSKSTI
Myc-PTBP1-RRM1: residues 1-192 of P26599

binding (RUNX1-R320X): no binding | binding (FLAG-RUNX1-Y287X): no binding | binding [1]: binds | binding (FLAG-RUNX1-Y407X): binds | binding (FLAG-RUNX1-R232X): no binding | binding (FLAG-RUNX1-G365R): binds
Substance: Myc tag WT PTBP1 (from UniProt P26599 1-557)

binding [2]: binds | binding [3]: binds
Substance: Polypyrimidine Tract Binding Protein 1 (PTBP1), endogenous in human cells (from UniProt P26599 1-557)

binding (Myc tag WT PTBP1): binds | binding (Myc-PTBP1-RRM1): binds
Substance: full length, wild type (WT) FLAG tagged RUNX1 (from UniProt Q01196-8 1-480)

— article PMC12789033
